# Test results: the supplement of paper PMC8728848
# The other results are listed elsewhere or left out.
# Legend:
# Experiment in all cases: glycan array binding signal (z-score within array); higher = stronger binding
# Details in all cases: glycan notation: IUPAC condensed, linker removed
# [1] = molecular target: Fuc(a1-2)Gal(b1-4)GlcNAc(b1-3)Gal(b1-4)GlcNAc(b1-3)Gal(b1-4)GlcNAc
# Outline: (§1)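 The binding signal is a Z-score computed within each array and averaged over linkers. Arrays of the same protein sequence at different concentrations or buffers were also averaged together. Data originate from 3228 arrays in the Consortium for Functional Glycomics database, kept only where the protein sequence was available.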
# [2] = molecular target: Fuc(a1-2)Gal(b1-4)GlcNAc(b1-3)GalNAc
# Outline: as §1
# [3] = molecular target: Fuc(a1-2)Gal(b1-4)GlcNAc(b1-3)[Fuc(a1-2)Gal(b1-4)GlcNAc(b1-6)]GalNAc
# Outline: as §1
# [4] = molecular target: Fuc(a1-2)Gal(b1-4)GlcNAc(b1-3)[Fuc(a1-3)[Gal(b1-4)]GlcNAc(b1-6)]Gal(b1-4)Glc
# Outline: as §1
# [5] = molecular target: Fuc(a1-2)Gal(b1-4)GlcNAc(b1-6)GalNAc
# Outline: as §1
# [6] = molecular target: Fuc(a1-2)Gal(b1-4)GlcNAc6S
# Outline: as §1
# [7] = molecular target: Fuc(a1-2)Gal(b1-4)[Fuc(a1-3)]GlcNAc
# Outline: as §1
# [8] = molecular target: Fuc(a1-2)Gal(b1-4)[Fuc(a1-3)]GlcNAc(b1-2)Man(a1-3)[Fuc(a1-2)Gal(b1-4)[Fuc(a1-3)]GlcNAc(b1-2)Man(a1-6)]Man(b1-4)GlcNAc(b1-4)[Fuc(a1-6)]GlcNAc
# Outline: as §1
# [9] = molecular target: Fuc(a1-2)Gal(b1-4)[Fuc(a1-3)]GlcNAc(b1-2)[Fuc(a1-2)Gal(b1-4)[Fuc(a1-3)]GlcNAc(b1-4)]Man(a1-3)[Fuc(a1-2)Gal(b1-4)[Fuc(a1-3)]GlcNAc(b1-2)Man(a1-6)]Man(b1-4)GlcNAc(b1-4)GlcNAc
# Outline: as §1
# [10] = molecular target: Fuc(a1-2)Gal(b1-4)[Fuc(a1-3)]GlcNAc(b1-3)Gal(b1-4)[Fuc(a1-3)]GlcNAc
# Outline: as §1
# [11] = molecular target: Fuc(a1-2)Gal(b1-4)[Fuc(a1-3)]GlcNAc(b1-3)Gal(b1-4)[Fuc(a1-3)]GlcNAc(b1-3)Gal(b1-4)[Fuc(a1-3)]GlcNAc
# Outline: as §1
# [12] = molecular target: Fuc(a1-2)Gal(b1-4)[Fuc(a1-3)]GlcNAc(b1-3)GalNAc
# Outline: as §1
# [13] = molecular target: Fuc(a1-2)Gal(b1-4)[Fuc(a1-3)]GlcNAc(b1-3)[Neu5Ac(a2-6)Gal(b1-4)GlcNAc(b1-6)]Gal(b1-4)Glc
# Outline: as §1
# [14] = molecular target: Fuc(a1-2)Gal3S(b1-4)GlcNAc
# Outline: as §1
# [15] = molecular target: Fuc(a1-2)Gal6S(b1-3)GlcNAc
# Outline: as §1
# [16] = molecular target: Fuc(a1-2)Gal6S(b1-3)GlcNAc6S
# Outline: as §1
# Fuc(a1-2)Gal6S(b1-4)Glc = molecular target: Fuc(a1-2)Gal6S(b1-4)Glc
# Outline: as §1
# [17] = molecular target: Fuc(a1-2)Gal6S(b1-4)Glc6S
# Outline: as §1
# Fuc(a1-2)[Gal(a1-3)]Gal = molecular target: Fuc(a1-2)[Gal(a1-3)]Gal
# Outline: as §1
# [18] = molecular target: Fuc(a1-2)[Gal(a1-3)]Gal(b1-3)GalNAc
# Outline: as §1
# [19] = molecular target: Fuc(a1-2)[Gal(a1-3)]Gal(b1-3)GalNAc(b1-3)Gal(a1-4)Gal(b1-4)Glc
# Outline: as §1
# [20] = molecular target: Fuc(a1-2)[Gal(a1-3)]Gal(b1-3)GlcNAc
# Outline: as §1
# [21] = molecular target: Fuc(a1-2)[Gal(a1-3)]Gal(b1-3)GlcNAc(b1-2)Man(a1-3)[Fuc(a1-2)[Gal(a1-3)]Gal(b1-3)GlcNAc(b1-2)Man(a1-6)]Man(b1-4)GlcNAc(b1-4)GlcNAc
# Outline: as §1
# [22] = molecular target: Fuc(a1-2)[Gal(a1-3)]Gal(b1-3)GlcNAc(b1-2)Man(a1-3)[Fuc(a1-2)[Gal(a1-3)]Gal(b1-3)GlcNAc(b1-2)Man(a1-6)]Man(b1-4)GlcNAc(b1-4)[Fuc(a1-6)]GlcNAc
# Outline: as §1
# [23] = molecular target: Fuc(a1-2)[Gal(a1-3)]Gal(b1-3)GlcNAc(b1-3)GalNAc
# Outline: as §1
# [24] = molecular target: Fuc(a1-2)[Gal(a1-3)]Gal(b1-3)GlcNAc(b1-6)GalNAc
# Outline: as §1
# [25] = molecular target: Fuc(a1-2)[Gal(a1-3)]Gal(b1-4)Glc
# Outline: as §1
# [26] = molecular target: Fuc(a1-2)[Gal(a1-3)]Gal(b1-4)GlcNAc
# Outline: as §1
# [27] = molecular target: Fuc(a1-2)[Gal(a1-3)]Gal(b1-4)GlcNAc(b1-2)Man
# Outline: as §1
# [28] = molecular target: Fuc(a1-2)[Gal(a1-3)]Gal(b1-4)GlcNAc(b1-2)Man(a1-3)[Fuc(a1-2)[Gal(a1-3)]Gal(b1-4)GlcNAc(b1-2)Man(a1-6)]Man(b1-4)GlcNAc(b1-4)GlcNAc
# Outline: as §1
binder,measurement,setting,value
BT3172pd (Bacteroides thetaiotaomicron) (protein) MLPLRAEHYYYKQISLKEGLPSNVRCILRDEQGFIWIGTKAGLGKFDGHQLKRYKHQANDPHSLLHNLIYQIAEDKQHNIWILTEKGIARYQQQSNNFTFPTDEEGNYITAYSFCLVPDGILFGGKDRIYKYSYKDSSLRLLQYFNANSFKITALSVWDSKTLLCCSRWTGLYLVDLQTGEHRRPPFDCGPEITSMITDSKNRIWIAPYSGGLRCYSRDGKLSASYTTHNSSLSNDIVLSLAEREEQLWIGTDGGGINILHPETGEISQLEYIPGRENYSLPANSILCLHNDYNNNVWAGSTCNGLISIREVSMKTYTDVVPGNDRGLSNGTVRSLYRQSPDSIWIGTDGGGINLFSPHTEKFTHYSSTWGDKVAFISGFTPGKLLISLFSKGVFVFNPATGEKQPFTIIDKETTTRLCNRGKSVNLYQNTPNTVLFLGDHIYQYHLKEKKFSTITEEEGKDIVGTLVPFDHQENLTYINDIKHIYELDDQTSRLKTVFECYTDTVISSVSHDEQGHFWIGSNFGLIHYDPVLKSRTLVPTNLFTEINMVLCDQKGKVWIGVDNMLFAYFIKEQKFVLFGESNGAIQNEYLPNARLVNEQGDAYIGGVKGMLRIDGQLLLNTSEMPELQLLDITINGESANHEWYNHPAKISVPWNSNISIRIMSREEDIFRQKIYRYQIEGLNNEYTESYNPELVIRSLLPGSYRIMASCTAKDGSWIPDQQVLELTVLPPWYRTHHHHHH,glycan array binding signal (z-score),[1],-0.03
same,glycan array binding signal (z-score),[2],-0.024
same,glycan array binding signal (z-score),[3],-0.207
same,glycan array binding signal (z-score),[4],-0.126
same,glycan array binding signal (z-score),[5],1.07
same,glycan array binding signal (z-score),[6],0.882
same,glycan array binding signal (z-score),[7],0.165
same,glycan array binding signal (z-score),[8],-0.54
same,glycan array binding signal (z-score),[9],0.127
same,glycan array binding signal (z-score),[10],-0.649
same,glycan array binding signal (z-score),[11],-0.611
same,glycan array binding signal (z-score),[12],-0.425
same,glycan array binding signal (z-score),[13],-0.441
same,glycan array binding signal (z-score),[14],-0.052
same,glycan array binding signal (z-score),[15],0.303
same,glycan array binding signal (z-score),[16],0.599
same,glycan array binding signal (z-score),Fuc(a1-2)Gal6S(b1-4)Glc,-0.035
same,glycan array binding signal (z-score),[17],-0.485
same,glycan array binding signal (z-score),Fuc(a1-2)[Gal(a1-3)]Gal,-0.373
same,glycan array binding signal (z-score),[18],0.258
same,glycan array binding signal (z-score),[19],0.134
same,glycan array binding signal (z-score),[20],-0.107
same,glycan array binding signal (z-score),[21],-1.02
same,glycan array binding signal (z-score),[22],-3.2
same,glycan array binding signal (z-score),[23],0.76
same,glycan array binding signal (z-score),[24],-0.035
same,glycan array binding signal (z-score),[25],0.216
same,glycan array binding signal (z-score),[26],-0.52
same,glycan array binding signal (z-score),[27],0.395
same,glycan array binding signal (z-score),[28],0.095
